# Experimental data from the supplement of paper PMC3334620.
# Whole data set: some 33,000 sequences, median “E-score (-0.5 to 0.5)” near -0.013, cut for the highest 2% near 0.3. The list shows a part of the results.
# Target: T1, Msn1 (UniProt P22148)
# T1 sequence: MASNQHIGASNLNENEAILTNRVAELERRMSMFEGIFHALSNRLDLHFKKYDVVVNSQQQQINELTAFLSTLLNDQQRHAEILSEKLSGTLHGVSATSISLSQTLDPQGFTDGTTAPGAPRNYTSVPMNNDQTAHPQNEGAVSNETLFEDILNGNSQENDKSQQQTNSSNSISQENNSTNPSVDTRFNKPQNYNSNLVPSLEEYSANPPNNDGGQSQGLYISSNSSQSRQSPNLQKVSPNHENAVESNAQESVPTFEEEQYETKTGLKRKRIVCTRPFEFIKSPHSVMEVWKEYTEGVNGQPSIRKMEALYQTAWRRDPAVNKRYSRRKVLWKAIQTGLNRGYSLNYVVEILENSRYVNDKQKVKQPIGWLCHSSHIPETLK
# Experiment: PBM E-score (8-mer binding enrichment) (E-score (-0.5 to 0.5)); higher = stronger / more preferred TF binding; most listed sequences are background and not binding sites
# Conditions: protein concentration: 200 nM; construct: GST-full length
# Procedure, shortened: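 PURExpress in vitro transcription/translation supplied GST-tagged yeast transcription factors, either full-length or DNA-binding domain. Applied at about 100-200 nM to universal all-10-mer Agilent arrays double-stranded by primer extension, the bound protein was detected with fluorescent anti-GST. E-scores, modified Wilcoxon-Mann-Whitney statistics, were given by the Universal PBM Analysis Suite to ungapped eight-base words pooled with their reverse complements after masliner normalisation.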
row,Sequence,PBM E-score
1,ACCCAACG,-0.00724
2,GGGTAGAA,-0.0543
3,ATGAAATA,0.0873
4,AATCGCTA,-0.00167
5,CCTAAAGC,-0.148
6,TGAACTCA,0.0356
7,GCCCTGAA,-0.0545
8,GACACCGA,0.28
9,AGCAGCTA,0.0463
10,AACATAAG,0.201
11,AACCCACC,-0.163
12,CACTCAGG,-0.183
13,GATACTTA,0.0239
14,CCAATCGA,0.0315
15,AAGCCATG,-0.0712
16,ATGTTAAC,0.163
17,AGTCTCAG,0.0296
18,ATCTACTA,0.12
19,ACTGTTTA,-0.0587
20,GAGCACAC,-0.221
21,ATCTCGCG,0.117
22,CTTCCAAG,-0.154

row,Sequence,PBM E-score
1,GTTGCATA,-0.108
2,TGGCAGAA,0.0862
3,CCCTGTTC,-0.213
4,GATCCCCA,-0.118
5,CGAATCTA,0.0472
6,CAACTGGG,-0.122
7,AGTGCCTG,-0.141
8,AGCATGCC,-0.219
9,GGAAGTCA,-0.0194
10,CACGCTAA,-0.08
11,CGCCCGCA,-0.19
12,AATGCTTA,-0.166
13,AAACGAGA,0.104
14,GGGGTCAA,-0.022
15,CAGTTAAC,0.051
16,GCTGCCCC,-0.221
17,AGGCATGG,-0.184
18,ACCCATAA,0.0631
19,AGATCGAG,-0.00049
20,GCCCCCTA,-0.375
21,ATTCGTTA,0.00793
22,AATCTTGA,-0.107

row,Sequence,PBM E-score
1,ATTTTCCG,0.271
2,CGTAAATA,0.253
3,ATTGAGCG,-0.00095
4,CGGACTGC,0.0541
5,AATGCATG,0.113
6,ACTTTCTC,0.0833
7,GTCGATCA,-0.0383
8,GCCCGGTA,-0.117
9,GGTTTCAA,-0.042
10,CGCGTGGA,-0.0204
11,CGTGGCAG,-0.0253
12,GTTAGGGA,-0.0237
13,ATAGTGGG,-0.127
14,ACCACGCG,0.086
15,ATGACGAC,0.118
16,GTCAACCA,-0.108
17,CGTCATTA,-0.0022
18,ATCATCCC,-0.147
19,CGTTTATC,0.0699
20,AACCAACA,0.0364
21,ACTAAACA,0.169
22,AGGTGAGC,-0.277

row,Sequence,PBM E-score
1,ACCCCCTG,-0.374
2,GCCTGACC,-0.234
3,AGTGGTGC,-0.18
4,ACTCACGG,0.00759
5,CCGACGAA,0.249
6,CAGTAAGA,0.104
7,ACCGTGGA,-0.0621
8,AGTGACCG,-0.242
9,GCCTAGGC,-0.177
10,ACGTCTAG,0.174
11,CCTGGCTC,-0.173
12,TCCAAAAA,0.232
13,CAACGTCA,-0.0181
14,GAGACCGA,-0.0115
15,AACGAACA,0.127
16,GGCGCCGA,0.0516
17,AGCCTGCC,-0.0992
18,AAGACTTC,-0.136
19,CCGTCAGG,-0.019
20,ACTCCTGG,-0.274
21,CCGATACG,-0.0476
22,GTAATGGA,0.174

row,Sequence,PBM E-score
1,GACCATGC,0.0413
2,TGACTCCA,-0.305
3,TTAATAAA,0.294
4,CCCCTAAG,-0.293
5,GAATTGGA,0.0681
6,CGTTGCCC,-0.0849
7,CATGAACC,0.0529
8,CACGTAGC,-0.317
9,ATACAAAC,0.125
10,ATAGGCCG,-0.147
11,CACAGGTC,-0.124
12,GTACTTAA,0.0985
13,AACCGCGT,0.223
14,CTAGGAGA,-0.199
15,CACGTTCG,-0.174
16,ACTTCCCA,0.128
17,GCATCAAC,-0.0904
18,AAAATTTA,0.149
19,CCTGTAAG,-0.0196
20,CGAAAAAG,0.136
21,ACGCCCGA,0.0847
